For this test, the target named is Recombinant human cathepsin S (CatS) (Homo sapiens, UniProt P25774). Briefly: biochemical.

Each structure is given as a SMILES string.

For `CS(=O)(=O)N1CCc2c(c(-c3ccc(Cl)c(Cl)c3)nn2CCCN2CCC(n3c(=O)[nH]c4ccccc43)CC2)C1` [Example 33, 1-(1-{3-[3-(3,4-Dichloro-phenyl)-5-methanesulfonyl-4,5,6,7-tetrahydro-pyrazolo[4,3-c]pyridin-1-yl]-propyl}-piperidin-4-yl)-1,3-dihydro-benzoimidazol-2-one], the 50% inhibitory concentration (IC50) (as a rule, the concentration that inhibits the measured activity by half) worked out at 10 nM.
For the molecule `CC(=O)N1CCc2c(c(-c3ccc(C(F)(F)F)cc3)nn2CC(O)CN2CCC(Nc3nc4ccccc4s3)CC2)C1` (stereo not drawn) [Example 16, 1-[1-{3-[4-(Benzothiazol-2-ylamino)-piperidin-1-yl]-2-hydroxy-propyl}-3-(4-trifluoromethyl-phenyl)-1,4,6,7-tetrahydro-pyrazolo[4,3-c]pyridin-5-yl]-ethanone], the IC50 came to 300 nM.
In the case of `COc1ccc2c(n1)n(C1CCN(CC(O)Cn3nc(-c4ccc(C(F)(F)F)cc4)c4c3CCN(S(C)(=O)=O)C4)CC1)c(=O)n2C` (stereo not drawn) [Example 45, 3-(1-{2-Hydroxy-3-[5-methanesulfonyl-3-(4-trifluoromethyl-phenyl)-4,5,6,7-tetrahydro-pyrazolo[4,3-c]pyridin-1-yl]-propyl}-piperidin-4-yl)-5-methoxy-1-methyl-1,3-dihydro-imidazo[4,5-b]pyridin-2-one] it was 20 nM; in that of `CC(=O)N1CCc2c(c(-c3ccc(C(F)(F)F)cc3)nn2CC(O)CN2CCC(Oc3c(Cl)cncc3Cl)CC2)C1` (stereo not drawn) [Example 17, 1-[1-{3-[4-(3,5-Dichloro-pyridin-4-yloxy)-piperidin-1-yl]-2-hydroxy-propyl}-3-(4-trifluoromethyl-phenyl)-1,4,6,7-tetrahydro-pyrazolo[4,3-c]pyridin-5-yl]-ethanone], 1300 nM.
For the molecule `CC(=O)N1CCc2c(c(-c3ccc(C(F)(F)F)cc3)nn2CC(O)CN2CCC(c3nc4ccccc4[nH]3)CC2)C1` (stereo not drawn) [Example 18], the IC50 worked out at 250 nM.
Regarding `CS(=O)(=O)N1CCc2c(c(-c3ccc(C(F)(F)F)cc3)nn2CC(O)CN2CCC(n3c(=O)[nH]c4cccnc43)CC2)C1` (stereo not drawn) [Example 42, 3-(1-{2-Hydroxy-3-[5-methanesulfonyl-3-(4-trifluoromethyl-phenyl)-4,5,6,7-tetrahydro-pyrazolo[4,3-c]pyridin-1-yl]-propyl}-piperidin-4-yl)-1,3-dihydro-imidazo[4,5-b]pyridin-2-one], the IC50 amounted to 80 nM.
For `CC(=O)N1CCc2c(c(-c3ccc(Cl)c(C)c3)nn2CC(O)CN2CCC(Oc3ccc(Cl)c(Cl)c3)CC2)C1` (stereo not drawn) [Example 4], the IC50 was 190 nM.
In the case of `CC(=O)N1CCc2c(c(-c3ccc(C(F)(F)F)cc3)nn2CC(O)CN2CCC(c3nc4cc(C(F)(F)F)ccc4s3)CC2)C1` (stereo not drawn) [Example 13, 1-[1-{2-Hydroxy-3-[4-(5-trifluoromethyl-benzothiazol-2-yl)-piperidin-1-yl]-propyl}-3-(4-trifluoromethyl-phenyl)-1,4,6,7-tetrahydro-pyrazolo[4,3-c]pyridin-5-yl]-ethanone] it was 370 nM; in that of `CC(=O)N1CCc2c(c(-c3ccc(Cl)c(C)c3)nn2C[C@@H](O)CN2CCC(n3c(=O)[nH]c4ccc(Cl)cc43)CC2)C1` [Example 6, (S)-1-(1-{3-[5-Acetyl-3-(4-chloro-3-methyl-phenyl)-4,5,6,7-tetrahydro-pyrazolo[4,3-c]pyridin-1-yl]-2-hydroxy-propyl}-piperidin-4-yl)-6-chloro-1,3-dihydro-benzoimidazol-2-one], 190 nM.
Next, `CC(=O)N1CCc2c(c(-c3ccc(Br)cc3)nn2CC(O)CN2CCC(n3c(=O)oc4ccccc43)CC2)C1` (stereo not drawn) [Example 3, 3-(1-{3-[5-Acetyl-3-(4-bromo-phenyl)-4,5,6,7-tetrahydro-pyrazolo[4,3-c]pyridin-1-yl]-2-hydroxy-propyl}-piperidin-4-yl)-3H-benzooxazol-2-one]: 280 nM.
For the molecule `Cn1c(=O)n(C2CCN(CCCn3nc(-c4ccc(C(F)(F)F)cc4)c4c3CCN(S(N)(=O)=O)C4)CC2)c2ccccc21` [Example 27, 1-{3-[4-(3-Methyl-2-oxo-2,3-dihydro-benzoimidazol-1-yl)-piperidin-1-yl]-propyl}-3-(4-trifluoromethyl-phenyl)-1,4,6,7-tetrahydro-pyrazolo[4,3-c]pyridine-5-sulfonic Acid Amide], the IC50 was 90 nM.
Next, `NC(=O)N1CCc2c(c(-c3ccc(Cl)c(Cl)c3)nn2CCCN2CCC(n3c(=O)[nH]c4ccccc43)CC2)C1` [Example 34, 3-(3,4-Dichloro-phenyl)-1-{3-[4-(2-oxo-2,3-dihydro-benzoimidazol-1-yl)-piperidin-1-yl]-propyl}-1,4,6,7-tetrahydro-pyrazolo[4,3-c]pyridine-5-carboxylic Acid Amide]: 20 nM; `CCOC(=O)Cn1c(=O)n(C2CCN(CC(O)Cn3nc(-c4ccc(C(F)(F)F)cc4)c4c3CCN(S(C)(=O)=O)C4)CC2)c2ccccc21` (stereo not drawn) [Example 38, [3-(1-{2-Hydroxy-3-[5-methanesulfonyl-3-(4-trifluoromethyl-phenyl)-4,5,6,7-tetrahydro-pyrazolo[4,3-c]pyridin-1-yl]-propyl}-piperidin-4-yl)-2-oxo-2,3-dihydro-benzoimidazol-1-yl]-acetic Acid Ethyl Ester]: 20 nM.
Consider `CN(C)c1ccc2[nH]c(=O)n(C3CCN(CC(O)Cn4nc(-c5ccc(C(F)(F)F)cc5)c5c4CCN(S(C)(=O)=O)C5)CC3)c2n1` (stereo not drawn) [Example 46, 5-Dimethylamino-3-(1-{2-hydroxy-3-[5-methanesulfonyl-3-(4-trifluoromethylphenyl)-4,5,6,7-tetrahydro-pyrazolo[4,3-c]pyridin-1-yl]-propyl}-piperidin4-yl)-1,3-dihydro-imidazo[4,5-b]pyridin-2-one], for which the IC50 is 30 nM.
In the case of `COc1ccc2[nH]c(=O)n(C3CCN(CC(O)Cn4nc(-c5ccc(Br)cc5)c5c4CCN(C(N)=O)C5)CC3)c2n1` (stereo not drawn) [Example 44, 3-(4-Bromo-phenyl)-1-{2-hydroxy-3-[4-(5-methoxy-2-oxo-1,2-dihydro-imidazo[4,5-b]pyridin-3-yl)-piperidin-1-yl]-propyl}-1,4,6,7-tetrahydro-pyrazolo[4,3-c]pyridine-5-carboxylic Acid Amide], the 50% inhibitory concentration (IC50) amounted to 30 nM.
For `CC(=O)N1CCc2c(c(-c3ccc(C(F)(F)F)cc3)nn2CC(O)CN2CCC(Oc3noc4ccccc34)CC2)C1` (stereo not drawn) [Example 14, 1-[1-{3-[4-(Benzo[d]isoxazol-3-yloxy)-piperidin-1-yl]-2-hydroxy-propyl}-3-(4-trifluoromethyl-phenyl)-1,4,6,7-tetrahydro-pyrazolo[4,3-c]pyridin-5-yl]-ethanone], the half-maximal inhibitory concentration (IC50) is 290 nM.
In the case of `Cn1c(=O)n(C2CCN(C[C@H](O)Cn3nc(-c4ccc(C(F)(F)F)cc4)c4c3CCN(S(C)(=O)=O)C4)CC2)c2ccccc21` [Example 30, (S)-1-(1-{2-Hydroxy-3-[5-methanesulfonyl-3-(4-trifluoromethyl-phenyl)-4,5,6,7-tetrahydro-pyrazolo[4,3-c]pyridin-1-yl]-propyl}-piperidin-4-yl)-3-methyl-1,3-dihydro-benzoimidazol-2-one], the IC50 is 40 nM.
Turning to `CC(=O)N1CCc2c(c(-c3ccc(C(F)(F)F)cc3)nn2CC(O)CN2CCC(n3c(=O)[nH]c4ccccc43)CC2)C1` (stereo not drawn) [Example 2, 1-(1-{3-[5-Acetyl-3-(4-trifluoromethyl-phenyl)-4,5,6,7-tetrahydro-pyrazolo[4,3-c]pyridin-1-yl]-2-hydroxy-propyl}-piperidin-4-yl)-1,3-dihydro-benzoimidazol-2-one], the IC50 is 70 nM.
Turning to `CS(=O)(=O)N1CCc2c(c(-c3ccc(C(F)(F)F)cc3)nn2CC(O)CN2CCC(n3c(=O)[nH]c4ccccc43)CC2)C1` (stereo not drawn) [Example 32, 1-(1-{2-Hydroxy-3-[5-methanesulfonyl-3-(4-trifluoromethyl-phenyl)-4,5,6,7-tetrahydro-pyrazolo[4,3-c]pyridin-1-yl]-propyl}-piperidin-4-yl)-1,3-dihydro-benzoimidazol-2-one], the IC50 worked out at 60 nM.
Next, `Cn1c(=O)n(C2CCN(CCCn3nc(-c4ccc(Cl)c(Cl)c4)c4c3CCN(C(N)=O)C4)CC2)c2ccccc21` [Example 36, 3-(3,4-Dichloro-phenyl)-1-{3-[4-(3-methyl-2-oxo-2,3-dihydro-benzoimidazol-1-yl)-piperidin-1-yl]-propyl}-1,4,6,7-tetrahydro-pyrazolo[4,3-c]pyridine-5-carboxylic Acid Amide]: 40 nM; `CS(=O)(=O)N1CCc2c(c(-c3ccc(C(F)(F)F)cc3)nn2CCCN2CCC(n3nnc4ccccc43)CC2)C1` [Example 26, 1-(1-{3-[5-Methanesulfonyl-3-(4-trifluoromethyl-phenyl)-4,5,6,7-tetrahydro-pyrazolo[4,3-c]pyridin-1-yl]-propyl}-piperidin-4-yl)-1H-benzotriazole]: 180 nM.
On to `CS(=O)(=O)N1CCc2c(c(-c3ccc(C(F)(F)F)cc3)nn2CC(O)CN2CCC(N3c4ccc(Cl)cc4CNS3(=O)=O)CC2)C1` (stereo not drawn) [Example 22, 1-[4-(6-Chloro-2,2-dioxo-3,4-dihydro-2H-2λ^6-benzo[1,2,6]thiadiazin-1-yl)-piperidin-1-yl]-3-[5-methanesulfonyl-3-(4-trifluoromethyl-phenyl)-4,5,6,7-tetrahydro-pyrazolo[4,3-c]pyridin-1-yl]-propan-2-ol], for which the half-maximal inhibitory concentration (IC50) is 30 nM.
In the case of `CC(=O)N1CCc2c(c(-c3ccc(Cl)c(C)c3)nn2CC(O)CN2CCC(N3CCc4ccccc43)CC2)C1` (stereo not drawn) [Example 5, 1-(3-(4-Chloro-3-methyl-phenyl)-1-{3-[4-(2,3-dihydro-indol-1-yl)-piperidin-1-yl]-2-hydroxy-propyl}-1,4,6,7-tetrahydro-pyrazolo[4,3-c]pyridin-5-yl)-ethanone] it was 1160 nM; in that of `Cc1cc(-c2nn(CC(O)CN3CCC(n4c(=O)[nH]c5ccc(Cl)cc54)CC3)c3c2CN(S(C)(=O)=O)CC3)ccc1Cl` (stereo not drawn) [Example 53, 6-Chloro-1-(1-{3-[3-(4-chloro-3-methyl-phenyl)-5-methanesulfonyl-4,5,6,7-tetrahydro-pyrazolo[4,3-c]pyridin-1-yl]-2-hydroxy-propyl}-piperidin4-yl)-1,3-dihydro-benzoimidazol-2-one], 50 nM.

(Values after patent publication US6583155B2, “Method for treating allergies using substituted pyrazoles” (priority 2000, dated 2003).)
